Measurements: publication PMC4336329 (PLoS ONE, 2015)
Among all 310,000 compounds or so, about 2,200 (0.71%) showed an effect of 50% or more. Effects have a minus sign here. The list shows a part of the results.

target: human ether-à-go-go-related gene (hERG) potassium channel (human, UniProt Q12809); assay: primary screen, population patch clamp on CHO cells stably expressing hERG
Sequence (Q12809 whole entry, looked up): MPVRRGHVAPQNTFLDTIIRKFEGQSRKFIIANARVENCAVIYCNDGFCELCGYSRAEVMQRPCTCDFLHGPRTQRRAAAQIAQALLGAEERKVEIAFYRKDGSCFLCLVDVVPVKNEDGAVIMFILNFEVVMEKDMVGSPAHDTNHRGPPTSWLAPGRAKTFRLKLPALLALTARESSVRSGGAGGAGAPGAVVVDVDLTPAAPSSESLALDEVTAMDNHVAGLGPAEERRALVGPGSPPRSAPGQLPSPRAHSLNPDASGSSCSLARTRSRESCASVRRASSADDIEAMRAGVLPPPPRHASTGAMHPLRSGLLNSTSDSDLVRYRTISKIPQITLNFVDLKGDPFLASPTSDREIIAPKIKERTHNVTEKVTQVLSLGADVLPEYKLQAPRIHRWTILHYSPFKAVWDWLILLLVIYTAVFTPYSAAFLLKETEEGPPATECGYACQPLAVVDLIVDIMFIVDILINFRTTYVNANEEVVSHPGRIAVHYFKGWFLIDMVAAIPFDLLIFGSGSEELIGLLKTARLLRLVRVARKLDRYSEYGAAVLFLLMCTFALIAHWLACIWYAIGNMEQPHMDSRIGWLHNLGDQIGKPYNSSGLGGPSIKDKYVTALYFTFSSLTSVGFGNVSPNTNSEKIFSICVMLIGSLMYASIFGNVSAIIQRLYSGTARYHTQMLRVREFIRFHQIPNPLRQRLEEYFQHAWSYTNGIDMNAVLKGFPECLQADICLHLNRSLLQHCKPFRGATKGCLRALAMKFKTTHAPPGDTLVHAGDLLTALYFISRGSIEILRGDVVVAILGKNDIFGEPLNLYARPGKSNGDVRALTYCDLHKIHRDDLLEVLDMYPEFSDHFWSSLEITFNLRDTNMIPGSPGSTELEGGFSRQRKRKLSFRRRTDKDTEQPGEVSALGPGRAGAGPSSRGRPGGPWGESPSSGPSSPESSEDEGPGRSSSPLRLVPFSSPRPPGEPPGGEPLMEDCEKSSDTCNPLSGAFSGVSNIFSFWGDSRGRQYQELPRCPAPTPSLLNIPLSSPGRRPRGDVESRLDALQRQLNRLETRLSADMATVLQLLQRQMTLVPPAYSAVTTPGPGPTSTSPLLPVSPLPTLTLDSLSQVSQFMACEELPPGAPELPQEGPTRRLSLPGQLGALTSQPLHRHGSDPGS

| SMILES | hERG current change (%, negative = inhibition) at 1uM [%] |
| --- | --- |
| Cc1cccc(C(=O)NCCNC(=O)c2cccnc2)c1 | 15.6 |
| Cc1ccc(F)c(NC(=S)Nc2cccc3ccccc23)c1 | 14 |
| COC(=O)CCC(=O)OC1(C)C(=O)C=C2C=C3CCCN3C=C2C1=O (stereo not shown) | -2.38 |
| COc1ccccc1N1CCN(C2CCCN(C(=O)c3ccccn3)C2)CC1 (stereo not shown) | 10.2 |
| C/C(=N/NC(=O)CNc1ccc(C)cc1)c1ccc(Br)s1 | 2.65 |
| N/C(=N\OC(=O)c1ccccc1[N+](=O)[O-])c1cccnc1 | 2.7 |
| C/C(=N\NC(=O)Cn1c(-c2ccccn2)nc2ccccc21)c1ccccc1 | 5.08 |
| COc1ccc(NC(=O)C(CC(=O)O)C(C)c2ccccc2)cc1 (stereo not shown) | 8.34 |
| Cc1cccc(N(C)c2ccc3cc(S(=O)(=O)N4CCCC4)ccc3n2)c1 | 13 |
| O=C(O)CNS(=O)(=O)c1ccc2c3c(cccc13)C(=O)N2 | 15.6 |
| CCOC(=O)C1(Cc2ccccc2)CCCN(C2CCN(C(C)=O)CC2)C1 (stereo not shown) | 14.2 |
| C=C(C)COc1ccc(-c2ncncc2Oc2ccc(OC)cc2)c(O)c1 | -8.11 |
| O=C(Nc1ccc(F)c(Cl)c1)c1nsc(Cl)c1Cl | 12.8 |
| Cc1ccccc1CN1C[C@@H]2C[C@@H](c3ccc4nsnc4c3)N3CCC[C@@]23C1=O | -0.62 |
| CN(C)Cc1nnnn1-c1cccc(-n2nnnc2CN(C)C)c1 | 13.7 |
| COc1ccc(S(=O)(=O)N2CCN(CC(=O)NC3CCCC3)CC2)cc1 | 13.2 |
| CCCCOc1ccc(C(=O)Nc2ccc3c(c2)OCO3)cc1 | 10.1 |
| CC(=O)N1C(C)c2ccccc2C(C)(C)CC12CCCCC2 (stereo not shown) | 9.69 |
| COc1ccc(CNS(=O)(=O)c2ccc(F)c(C(=O)Nc3ccccc3OC)c2)cc1 | 11.9 |
| CNc1c([N+](=O)[O-])ncn1C | 8.02 |
| COc1ccccc1OC(=O)C1CC(=O)N(c2ccc(Cl)cc2)C1 (stereo not shown) | -9.23 |
| CCN(C(=S)NCc1ccccc1)c1ccccc1 | -14.2 |

| SMILES | hERG current change (%, negative = inhibition) at 1uM [%] |
| --- | --- |
| CC(NS(C)(=O)=O)c1nnc2n1-c1ccc(Br)cc1C(c1ccccc1Cl)=NC2 (stereo not shown) | 5.73 |
| O=C(CN1CCCc2ccccc21)N1CCc2ccccc21 | 13.6 |
| N#Cc1cccc(NC(=O)NCCc2c[nH]c3ccccc23)c1 | 3.75 |
| Cc1cc(C)c(C(=O)NC2CC(C)(C)Cc3c2cnn3-c2ccccc2)o1 (stereo not shown) | 7.82 |
| CCOc1ccccc1NC(=O)c1cccnc1 | 10.2 |
| COc1ccc(CSc2nc(O)cc(=O)n2CC(C)C)cc1F | 9.68 |
| O=C(O)c1ccc(NC(=O)N2C[C@H]3C[C@@H](C2)c2cccc(=O)n2C3)cc1 | -13.6 |
| CCOC(=O)c1ccc(NC(=O)COc2ccccc2OC)cc1 | 11.3 |
| O=C(NC1CCCc2c1cnn2-c1ccc(F)cc1F)c1ccccc1N1CCOCC1 (stereo not shown) | 5.82 |
| COc1ccc(CNc2nc(-c3cccnc3)nn2C(=O)c2ccco2)cc1 | 10.3 |
| Cc1ccc(NC(=O)c2cc(N3C(=O)CCC3=O)ccc2N2CCOCC2)cc1 | 5.52 |
| COc1cc(C2C(C#N)=C(C)NC3=C2C(=O)CC(C)(C)C3)cc(OC)c1O (stereo not shown) | 10.8 |
| CC(=O)Nc1cccc(NC(=O)CCNC(=O)c2ccccc2)c1 | 8.11 |
| CCCCc1nc(SCCN2CCOCC2)c2c(=O)n(C)c(=O)n(C)c2n1 | 0.56 |
| COc1cccc(/C=C2\SC(=O)N(CC(=O)NC3CCS(=O)(=O)C3)C2=O)c1 (stereo not shown) | 11.1 |
| COc1ccc2c(c1)[nH]c1c(Cl)ncnc12 | 5.65 |
| CCOc1ccc(CC2C(=O)NC(=O)N(c3ccc(CC)cc3)C2=O)cc1 (stereo not shown) | 1.99 |
| COc1cccc(NC(=O)NC2(C(F)(F)F)Oc3ccccc3O2)c1 | 8.19 |
| Cc1oc2c(c1C(=O)N1CCOCC1)C(=O)c1ccccc1C2=O | 18.5 |
| COC(=O)Cn1c(O)c(N=NC(=O)CNC(=O)c2ccc3c(c2)OCCO3)c2ccccc21 | 11 |
| CCCC[C@H]1COCCS(=O)(=O)N1Cc1cccc(F)c1 | -11.7 |
| Cn1c(=O)oc2cc(S(=O)(=O)Nc3ccc(F)cc3)ccc21 | 5.46 |

| SMILES | hERG current change (%, negative = inhibition) at 1uM [%] |
| --- | --- |
| CC1=C(C(=O)OCC2CCCO2)C(c2ccccc2)C2=C(CC(C)(C)CC2=O)N1 (stereo not shown) | 10.4 |
| CCN(c1ccccc1)S(=O)(=O)c1nnc(NC(=O)CC(C)C)s1 | 1.44 |
| COc1ccc(-c2cn(-c3ccc(OC)cc3)c(=S)[nH]2)cc1 | 10.6 |
| O=S(=O)(c1ccc2nc(N3CCN(c4ccccc4)CC3)ccc2c1)N1CCCCC1 | 16.8 |
| O=C(Nc1ccncc1)Nc1cccc(Cl)c1 | 6.49 |
| Cc1ccc2oc(=O)c3cnn(CC(=O)N4CCN(c5ccccn5)CC4)c3c2c1 | -22.4 |
| CCCCCN(C(=O)CCC(=O)OC(C)C(=O)NCc1ccccc1)c1c(N)n(CCCC)c(=O)[nH]c1=O (stereo not shown) | 8.83 |
| CCOC(CNC(=O)c1ccc2c(c1)ncn2-c1ccccc1OC)OCC | 9.06 |
| COc1cccc(C(=O)Nc2nc3c(c(=O)[nH]2)CCCC3)c1 | 14.7 |
| CCN1C[C@]2(COC)CC[C@H](O)[C@@]34C5C[C@H]6[C@H](O)C5[C@](O)(C[C@H]6OC)[C@@H]([C@H](OC)C23)[C@@H]14 (stereo partly shown) | 11.4 |
| Cc1c(Cl)ccc2c(C(=O)Nc3cc(C(C)(C)C)on3)cc(-c3ccccn3)nc12 | 6.02 |
| CSc1nncc(/C(C)=N\Nc2ccccc2)n1 | 0.897 |
| CCOC(=O)c1cn(CC)c2c(ccc3ccccc32)c1=O | 16 |
| O=C(COC(=O)c1ccc2c(c1[N+](=O)[O-])C(=O)c1ccccc1C2=O)NC1CC1 | 4.36 |
| O=C(CCl)Nc1ccc(N2CCCCCC2)cc1 | 13.9 |
| COc1ccccc1N1CCN(Cc2cc(=O)c(OCC(=O)NC(C)C)co2)CC1 | 14.9 |
| COc1cc(CNCc2ccc(OC)c(OC)c2OC)cc(OC)c1 | -1.39 |
| C[C@]12CC[C@@H]3c4ccc(OS(=O)(=O)[O-])cc4CC[C@H]3[C@@H]1CCC2=O.[Na+] | 12.7 |
| Cc1ccc(-c2csc3nc(CSc4nnc(-c5ccc(Cl)cc5)n4C)[nH]c(=O)c23)cc1 | 5.73 |
| COc1ccc(C(CNC(=O)c2cc(=O)[nH]c3ccccc23)N2CCCC2)cc1 (stereo not shown) | 9.77 |
| C#CCSc1nnnn1-c1cccc(Cl)c1 | 2.71 |
| CCCSc1nc2c(c(=O)[nH]c(=O)n2C)n1Cc1ccccc1 | 2.13 |

| SMILES | hERG current change (%, negative = inhibition) at 1uM [%] |
| --- | --- |
| Cc1ccccc1N1CC(=O)N(c2ccccc2C)CC1=O | 4.9 |
| O=C(O)c1ccc(N2C(=O)/C(=C\c3ccccc3)N=C2c2ccccc2)cc1 | 8.09 |
| N=c1c(S(=O)(=O)c2ccc(Cl)cc2)cc2c(=O)n3ccccc3nc2n1C1CCCC1 | 13.9 |
| C/C(=N/NC(=O)C1CCN(S(=O)(=O)c2ccc(C)cc2)CC1)c1cccc([N+](=O)[O-])c1 | 10.8 |
| O=C(Nc1cccc(Cl)c1)Nc1nccs1 | 4.99 |
| O=S(=O)(c1ccccc1)N1CCN=C1SCc1ccc(Cl)cc1 | 5.15 |
| CCOC(=O)N1CCC(NC(=O)C2=C(C)C(=O)OC23CCC(C)CC3)CC1 (stereo not shown) | 2.98 |
| COCCN1CCN(C(=O)c2cc(COc3ccc(Cl)cc3OC)on2)CC1 | 8.2 |
| CCOc1ccc(S(=O)(=O)NCc2cccnc2)cc1C | 11.6 |
| O=C(Nc1nnc(SCc2cccc(F)c2)s1)c1ccco1 | 0.98 |
| Cc1c(S(=O)(=O)N2CCN(c3cccc(Cl)c3)CC2)c(=O)n(C)c(=O)n1C | 5.16 |
| CCCc1c(C(=O)N/N=C/c2c(OC)ccc3ccccc23)nnn1-c1nonc1N | 9.21 |
| CC(=O)c1cccc(NC(=O)C2=CN3CCS(=O)(=O)N=C3C=C2)c1 | 14.7 |
| COc1ccccc1CNc1cc(-c2ccccc2)ccc1OC | 13.1 |
| CCOc1ccccc1NC(=O)CCC(=O)O | -12.3 |
| O=C1OC(c2ccc(Br)cc2)=N/C1=C\N1CCCCC1 | 16.2 |
| Cc1ccc(-c2csc(NC(=O)c3c(C)noc3C)n2)cc1 | -0.623 |
| Cc1ccc(C(=O)COC(=O)c2cccc(N3C(=O)c4c(C)nc5ccccc5c4C3=O)c2)cc1C | 1.85 |
| O=C(NCCc1ccccc1)C1CCCN1C(=O)Nc1ccc(F)cc1 (stereo not shown) | 9.53 |
| CCCn1c(N)c(N(CCOC)C(=O)c2cc(S(=O)(=O)N3CCCCCC3)ccc2OC)c(=O)[nH]c1=O | 1.73 |
| CCN1C(=O)CC(NNC(=O)c2ccccc2)C1=O (stereo not shown) | -5.94 |
| Cc1cccc(OCCNC(=O)CCNS(=O)(=O)c2ccc3ccccc3c2)c1 | 6.04 |
